From article PMC12040169 (PLOS Biology, 2025)
The other results are listed elsewhere or left out.

These compounds were tested on T1, C. trachomatis L2/434/Bu expressing GFP (CTL2-GFP). Conditions: total inclusion area; 28.5 h, 10 µM; inhibitor.
T1 construct: L2/434/Bu GFP intracellular growth in HeLa cells
Design: species or system HeLa; C. trachomatis total inclusion area by high-content imaging, normalised to DMSO
In short: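 High-content imaging followed the bulk GFP/resorufin measurement: fixed, Hoechst-stained cells were scored for GFP inclusions and host nuclei per well. Total inclusion area and count served as growth proxies, nuclei number as the viability proxy. MIC calculation matched the bulk assay.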

Structure (SMILES) | % of control remaining
COc1ccccc1C(=O)N1CCN(Cc2cc(OC)c(O)c(OC)c2)CC1 [CBK263484] | 102.236
Nc1nc(N)c2cccc(F)c2n1 [CBK025945] | 90.4728
O=C(O)CCCC(=O)Nc1ccc([N+](=O)[O-])cc1O [CBK267384] | 104.814
CCCCN1CCC(CNc2nccc3sc(S(=O)(=O)NC4CCC4)cc23)CC1 [CBK038275C] | 97.9106
Cc1ccccc1S(=O)(=O)N(c1ccc(C(C)(C)C)cc1)C1CCNCC1 [CBK165074T] | 95.2449
CC(CNC(=O)c1cccn(CC(=O)Nc2ccc(F)cc2)c1=O)N1CCCCCC1 (stereo not shown) [CBK286123] | 111.605
CN1CCN(CC(=O)Nc2sc3c(c2C(=O)NCc2ccccc2)CCCC3)CC1 [CBK268207] | 86.8727
CC1CCCCN1C(=O)CCn1c(-c2cccnc2)cc2cccnc21 (stereo not shown) [CBK282692] | 107.689
O=C(O)c1cccc(NC(=O)c2c(C(=O)O)cccc2[N+](=O)[O-])c1 [CBK261096] | 104.848
COc1cc(C(O)CNC(=O)c2cnc(-c3ccc(F)cc3)c(-c3cccc(N)c3)c2)ccc1O (stereo not shown) [CBK038032] | 69.5507
OCCOc1cccc(-c2nnco2)c1 [CBK000033] | 99.334
Cc1oc2[nH]c(CN(C)CCOc3ccc(Cl)cc3)nc(=N)c2c1C(=O)O [CBK279463] | 113.956
Fc1ccc(CCNc2ccc3nncn3n2)cc1 [CBK287909] | 92.4394
CC(NC(=O)C1CCN(Cc2cccs2)CC1)c1ccc(F)cc1 (stereo not shown) [CBK148041] | 121.859
O=C1CC(C(=O)N2CCc3ncc(Cl)cc3C2)c2ccccc2N1 (stereo not shown) [CBK284976] | 112.161
Cc1ccn2c(CN3CCC(n4nc(C)cc4C)CC3)c(C)nc2c1 [CBK281616] | 79.8495
Cc1ncncc1C(=O)N1CCc2sccc2C1c1ccccc1 (stereo not shown) [CBK281386] | 85.7631
NC(=O)c1ccccc1/N=C/c1ccc([N+](=O)[O-])o1 [CBK261675] | 52.3495
O=C(CCn1c(CO)nc2ccccc21)c1ccccc1 [CBK296947] | 59.5402
Cn1cccc1C(=O)OCC(=O)N1CCCCC1 [CBK305903] | 65.4621
COC(=O)C1=C(C)N(c2ccc(C(=O)O)cc2)C(=O)NC1c1cccc(OC)c1OC (stereo not shown) [CBK295355] | 113.613
Cc1cc2nc(SCCO)[nH]c2cc1C [CBK027546] | 62.0192
CCOc1cccc(-c2cncc(N3CCCC3CO)n2)c1 (stereo not shown) [CBK066004] | 104.817
CCc1nc2ccc(C(=O)Nc3ccc(NC(C)=O)cc3)cn2c1N(C)C(=O)Cc1ccccc1 [CBK146855] | 90.1054
CC(CNC(=O)Cc1ccc(C(F)(F)F)cc1[N+](=O)[O-])N1CCc2ccccc2C1 (stereo not shown) [CBK298292] | 99.6096
Cc1ccc(S(=O)(=O)Oc2c(C=C3C(=O)CC(C)(C)CC3=O)[nH]c3ccccc23)cc1 [CBK263464] | 101.142
CC(Cc1ccc(N(C)C)cc1)NC(=O)C1CN(S(=O)(=O)c2ccc(F)cc2)C1 (stereo not shown) [CBK285942] | 128.052

Structure (SMILES) | % of control remaining
COC(=O)c1ccc(NC(=O)c2oc3ccc(Br)cc3c2C)cc1 [CBK296758] | 85.6499
Cc1onc(-c2ccccc2)c1C(=O)N1CCC(C(N)=O)CC1 [CBK158721] | 94.4461
O=C(c1ccccc1)c1ccccc1-n1nccn1 [CBK013849] | 88.8188
COC(=O)c1ccccc1NC(=O)C1CCCN(S(=O)(=O)c2cc(Cl)ccc2Cl)C1 (stereo not shown) [CBK268797] | 81.3596
Cc1nn2cc(CNC(=O)C3Cc4ccccc4O3)nc2s1 (stereo not shown) [CBK307498] | 81.6454
CC(NC(=O)c1ccccc1Cn1cncn1)C1CC2CCC1C2 (stereo not shown) [CBK281654] | 94.3099
Oc1cccc(-c2nccnc2N[C@@H]2CCN(Cc3ccccc3)C2)c1 [CBK037017] | 118.075
NCC1CCN(c2cc(C(F)(F)F)c3scc(C(=O)NCc4cccc(F)c4F)c3n2)CC1 [CBK036391T] | 16.1588
COc1cc(Nc2cncc(-c3ccccc3CO)n2)cc(OC)c1OC [CBK037160] | 94.6674
Cc1ncsc1C(=O)N1CCC(c2cccc(Cc3ccc(C(F)(F)F)cc3)n2)CC1 [CBK286216] | 61.307
CCNC(=O)c1ccc(-n2cccn2)c(C#Cc2ccccn2)c1 [CBK283125] | 105.47
Cc1ccc(C)c(Nc2nc3nonc3nc2N2CCOCC2)c1 [CBK262491] | 55.2194
COc1ccc2ncc3c(-c4ccccc4)n[nH]c3c2c1 [CBK288052] | 103.919
CCN(C(=O)c1cc2ccc(N(C)C)cc2[nH]1)C1CCN(C)CC1 [CBK281867] | 67.4299
O=S(=O)(NCCOCc1ccccc1)c1ccc2c(c1)Cc1ccccc1-2 [CBK266032] | 104.269
C=CCNC(=O)CCc1nc(-c2cccc(OC)c2)no1 [CBK268981] | 88.0419
CCOC(=O)c1c(NC(=O)CSc2nnc3ccccn23)sc2c1CCC(C)C2 (stereo not shown) [CBK265668] | 125.101
S=C(NCc1ccc(Cl)cc1)Nc1ccncc1 [CBK016651] | 95.2564
Cc1cccn2cc(C(=O)N(C)CCn3ccnc3C)nc12 [CBK281735] | 101.856
Cc1cc2ncn(CC(=O)Nc3c(C)noc3C)c2cc1C [CBK200222] | 87.2598
CN(Cc1ccc(CN2CCOC(c3ccccc3)C2)o1)S(C)(=O)=O (stereo not shown) [CBK306808] | 83.6972
Cc1ccc(S(=O)(=O)NCC(c2ccccc2)N2CCN(CCC#N)CC2)cc1 (stereo not shown) [CBK262865] | 92.9737
CCCC(=O)Nc1ccc(-c2csc(NC(=O)C3CCCO3)n2)cc1 (stereo not shown) [CBK305854] | 22.5325
OC1(Cn2cnc3ccccc32)CCN(Cc2cccc(F)c2)CC1 [CBK284663] | 95.7061
CC(c1ccc(F)c(F)c1)N(C)C(=O)Cn1cnnc1[S+](C)[O-] (stereo not shown) [CBK305311] | 22.0368
CC1CC(C)CN(CCCNS(=O)(=O)c2ccc3c(c2)oc(=O)n3C)C1 (stereo not shown) [CBK268695] | 70.0384
CCOc1ccccc1N(CC(=O)O)S(=O)(=O)c1ccc(Cl)cc1 [CBK287144] | 91.2437

Structure (SMILES) | % of control remaining
c1ccc(CN2CC[C@H](Nc3nccnc3-c3cccnc3)C2)cc1 [CBK036978] | 101.283
Nc1ncc(-c2ccc(C(=O)N3CCOCC3)cc2)cc1C(=O)Nc1ccc(C(F)(F)F)cc1 [CBK160204] | 75.2132
N#Cc1ccccc1N1CCN(c2cncc(-c3cccc4cccnc34)n2)CC1 [CBK037366] | 104.674
COc1cc(NC(=O)Nc2ccc3ccc(Cl)nc3n2)cc(OC)c1OC [CBK115933] | 84.5568
CCCCN1CCC(C(=O)Oc2ccc(OC)c3ccccc23)CC1 [CBK122682] | 86.9759
O=C(NC(Cc1cccs1)c1nccs1)c1cc[nH]n1 (stereo not shown) [CBK285052] | 83.2568
Cc1ccc(-c2noc(CN(C(=O)CCc3ccccc3)C(C)C)n2)cc1 [CBK269313] | 88.7725
CCN(CC)CCNC(=O)c1ccc(NS(=O)(=O)c2cc(C(=O)O)ccc2OC)cc1 [CBK296962] | 110.23
CN(C)CCN(C)C(=O)c1ccc(-c2ccc3c(c2)OCO3)nc1N(C)C [CBK106072] | 91.7795
O=C1C2C(c3ccccc3Cl)OC3(C(=O)c4ccccc4C3=O)C2C(=O)N1c1ccc([N+](=O)[O-])cc1 (stereo not shown) [CBK262425] | 104.116
COc1cc(/C=C2\C=C(c3ccc(-c4ccccc4)cc3)OC2=O)ccc1O [CBK265594] | 110.483
COc1ccc(NC(=O)/C(=C\c2ccc3c(c2)OCO3)NC(=O)c2ccco2)cc1 [CBK263607] | 116.728
Cc1cc(S(=O)(=O)NC2CCCCC2)ccc1OCC(=O)O [CBK267832] | 93.0475
Cc1nn(CC(=O)NC2CC2)c(=O)c2cc3ccsc3n12 [CBK284026] | 80.1682
O=C1NC2(CCN(C(=O)Cc3ccc(-c4ccccc4)cc3)CC2)Nc2ccccc21 [CBK286309] | 96.1536
Cc1ccc(N2CC(c3nc(-c4ccncc4)no3)CC2=O)cc1Cl (stereo not shown) [CBK288582] | 108.793
CC(C)(C)NC(=O)COc1ccc(CNCc2ccc(C(=O)O)cc2)cc1 [CBK287204] | 103.373
O=C(O)c1ccc(N(Cc2ccccc2)S(=O)(=O)c2ccccc2)cc1 [CBK265375N] | 91.949
N#Cc1cccc(NC(=O)NC[C@H]2C[C@@H]3CC[N@]2C[C@@H]3CN2CCOCC2)c1 [CBK288763] | 95.1961
O=C(CSc1nnc(-c2cccnc2)n1-c1ccccc1)Nc1cc(C(F)(F)F)ccc1Cl [CBK267540] | 73.9237
Cc1n[nH]c(C)c1CCC(=O)N/N=C/c1ccccn1 [CBK262887] | 96.9109
Cc1noc(C)c1CN1CCC(C(O)c2ccccc2)CC1 (stereo not shown) [CBK305783] | 102.976
COC(=O)c1c(NC(=O)C(Cc2ccccc2)N2C(=O)c3ccccc3C2=O)sc2c1CCC2 (stereo not shown) [CBK265744] | 93.0591
Cc1ccc(-c2csc(=Nc3ccc(C(=O)O)cc3)n2Cc2ccccc2)cc1 [CBK296062] | 113.125
O=C(NCCc1ccccc1)C1CCN(C(=O)c2cccc(F)c2)CC1 [CBK307583] | 95.361
